From PubChem BioAssay AID1956 (SRMLSC, 2009)
This is one part of the list. The main result of the screen is listed elsewhere. These columns were measured beside it and carry no call.

Assay: enhancers of HSV replication in host cells, fold increase, host cell viability (AID 1956); further: tested in PC3 cells
Details: HSV replication augmentation in cells; fold increase: measured here: primary screen fold increase 10 uM, at 10 µM, stronger effect = higher value; viability: measured here: host cell viability series, at 25 µM, stronger effect = lower value

SMILES	fold increase	viability
CCC1=Nc2ccccc2NC2=C1C(=O)CCC2	1.4	95.7%
NNC(=O)c1oc2nc(-c3ccco3)cc(-c3ccco3)c2c1N	1.36	97.6%
CC(=O)NCCC(=O)Nc1nc(-c2cccs2)c(-c2cccs2)s1	1.37	97.3%
CSC1=NSC2=NC(=O)/C(=C/c3coc4ccc(O)cc4c3=O)C(=N)N12	1.5	102%
COc1ccc(/C=C2\CCCc3c2nc2ccccc2c3C(=O)O)cc1OC	7.99	98.1%
CCCC(C(=O)O)N1C(=O)/C(=C/c2cccn2C)SC1=S (stereo unspecified)	1.65	105%
N#C/C(=C\c1ccc(OC(=O)c2ccc(Br)s2)cc1)c1nc2ccccc2[nH]1	1.34	
CCCCNc1ccc(C(=O)Nc2cccc(C)n2)cc1[N+](=O)[O-]	1.4	97.4%
Cc1occc1C(=O)Nc1c(F)c(F)c(F)c(F)c1F	1.32	96.2%
COc1cc(C2N(c3ccc(Cl)cc3)C(=O)C3CCCN32)cc(OC)c1OC (stereo unspecified)	1.41	101%
COc1ccc(S(=O)(=O)N/N=C\c2ccc(OC)c(COc3ccc(C)cc3[N+](=O)[O-])c2)cc1	1.07	
N#CC1=C(N)Oc2ccc3ccc(O)cc3c2C1c1ccsc1 (stereo unspecified)	5.07	91.7%
COC(=O)CSc1nc2ccc(C)cc2cc1C#N	1.39	96%
COc1ccc(N=Nc2nc3cc(Br)c(Br)cc3n2C)c(OC)c1	2.53	56.5%
O=C1/C(=C\c2ccc(O)cc2)SC(=S)N1c1cccnc1	3.82	93%
CCc1ccc(NC(=O)CS(=O)CC(=O)NC(C)CCc2ccco2)cc1 (stereo unspecified)	1.07	
N#CCCN1CCN(S(=O)(=O)c2ccc(S(=O)(=O)NC3CC3)cc2)CC1	1.38	99.3%
CC1=C(C(=O)Nc2ccccc2Cl)C(c2ccc(N(C)C)cc2)NC(=O)N1 (stereo unspecified)	1.33	94.4%
N#Cc1ccc(-c2ccc(F)cc2)nc1SCC(=O)Nc1sc2c(c1C#N)CCC2	1.82	69%
CCOC(=O)N1CC=C2C(C#N)=C(N)C(C#N)(C#N)[C@H](c3ccccc3OCC)[C@H]2C1	1.34	96.1%
Cc1ccccc1OCC(=O)OCC(=O)Nc1cc(C(F)(F)F)ccc1N1CCOCC1	1.33	98.8%
O=C(OCCN1C(=O)c2cccc3c(N4CCOCC4)ccc(c23)C1=O)c1ccc(Cl)cc1Cl	8.33	50.1%
COc1cc(N2CCCC2)c(OC)cc1/C=C(/C#N)c1cccc(Br)c1	1.35	91%

SMILES	fold increase	viability
COC(=O)c1ccc(N2Cc3ccccc3/C2=N\C(=O)Nc2ccccc2)cc1	1.39	94.4%
Cn1cc(/C=C2\SC(=S)N(NC(=O)c3ccccc3)C2=O)c2ccccc21	1.43	92.1%
CC(C)Oc1ccc(N2CC(C(=O)Nc3ccc4c(c3)OCO4)CC2=O)cc1 (stereo unspecified)	1.42	99.7%
CCN(Cc1ccccc1)c1ccc(/C=C(\C#N)c2ccccn2)cc1	2.13	83.7%
CCN(CC)S(=O)(=O)c1ccc(C(=O)OCCN2C(=O)c3cccc4c(N5CCOCC5)ccc(c34)C2=O)cc1	1.64	89.7%
COc1ccc(C(=O)OC(C)C(=O)Nc2cc(C(F)(F)F)ccc2Cl)c(OC)c1OC (stereo unspecified)	1.34	83.7%
CC(C)OC(=O)CN1C(=O)S/C(=C/c2ccc(N3CCCCC3)o2)C1=O	1.34	90.5%
CN(C)c1ccc(/C=C(\C#N)c2ccccn2)cc1	1.41	62.5%
Cc1cc(-c2nnc(CCC(=O)N3CCN(Cc4cccnc4)CC3)o2)c(C)o1	1.62	96.4%
CCCCN1C(=O)C2Cc3c([nH]c4ccccc34)CN2C1=S (stereo unspecified)	1.66	94.7%
O=c1[nH]c2ccccc2nc1/C=C(\O)C(F)F	1.63	99.8%
COc1ccc(C2C3=C(CC(C)(C)CC3=O)Nc3cc4c(cc32)OCO4)cc1 (stereo unspecified)	1.28	
CN(C)CCCn1c(N)c(C#N)c2nc3ccccc3nc21	1.37	94.7%
COc1ccc(-n2nnnc2SCC(=O)Nc2nnc(C)s2)cc1	1.13	
Cc1cc(/C=C(/C#N)c2nc3ccccc3[nH]2)c(C)n1-c1cc(C(=O)O)cc(C(=O)O)c1	1.55	99.9%
COc1cc2c3nnc(-c4ccc(F)cc4)c-3cn(Cc3ccc(C)cc3)c2cc1OC	3.21	97.4%
N#Cc1cn(-c2ccccc2)nc1-c1ccccc1	1.39	90.8%
CC(C)C(C(=O)O)N1C(=O)/C(=C/C=C/c2ccco2)SC1=S (stereo unspecified)	1.34	
COCCN1C(=O)/C(=C/c2ccc(N3CCCC3)cc2C)SC1=S	4.94	84.4%
O=C(c1cn(-c2ccccc2)nc1-c1ccccc1)n1nnc2ccccc21	1.16	
O=C(NNC1=Nc2cccc3cccc1c23)c1ccc(Br)cc1	1.56	
O=C(Nc1ccc(Cl)cc1)N1CCCC(Cn2cccc2)C1 (stereo unspecified)	1.32	
CCOc1ccc2oc(-c3ccccc3)c(C(=O)N(C)C)c2c1	1.32	90.3%

SMILES	fold increase	viability
CCc1sc(/C=C(/C#N)C(N)=S)cc1[N+](=O)[O-]	1.54	99%
CC(=O)Nc1ccc2cc3ccc(NC(C)=O)cc3nc2c1	9.14	
Cc1cc(C(=O)CN2C(=O)NC3(CCCc4ccccc43)C2=O)c(C)n1Cc1ccccc1 (stereo unspecified)	1.18	
CC(=O)Nc1cccc(C(=O)/C=C/c2ccc(N(C)C)cc2)c1	1.37	89.2%
CCOC(=O)/C(C#N)=C/c1ccc(OCC(=O)Nc2ccccc2)c(OC)c1	1.14	
CCN(CC)Cc1ccc(OC)c(Cl)c1	1.33	92.3%
O=C(CCN1C(=O)c2ccccc2C1=O)Nc1ccccn1	1.33	101%
Nc1nccnc1C(=O)OCC(=O)Nc1cccc(S(=O)(=O)N2CCCCC2)c1	1.43	96.9%
N#C/C(=C\c1ccc([N+](=O)[O-])o1)C(=O)Nc1ccc(F)cc1	1.56	
Cc1ccc(N2C(=O)[C@@H]3C(C(=O)CCN4C(=O)c5ccccc5C4=O)=NN[C@@H]3C2=O)cc1	1.33	95.4%
CC(=O)c1sc2nc(-c3cccs3)cc(C(F)(F)F)c2c1N	1.24	94.3%
CCOC(=O)N1CCN(C(=O)c2cc3c(=O)n(C)c4ccccc4c3n2C)CC1	1.4	96.8%
O=C(CSc1nnc(-c2ccccc2)c(-c2ccccc2)n1)Nc1ncc(Cl)cc1Cl	1.42	86.6%
CCCN1C(=O)/C(=C/c2c(N3CCNC(=O)C3CC(=O)OCC)nc3c(C)cccn3c2=O)SC1=S (stereo unspecified)	8.77	69.8%
CC(C)(C)CC(C)(C)NC(=S)Nc1ccc2nc(-c3ccccn3)c(-c3ccccn3)nc2c1	1.34	72.1%
COc1cc(-c2cc(=O)c3ccccc3o2)ccc1O	1.34	83.6%
CCOc1cc(/C=C/c2cc(C(F)(F)F)[nH]c(=O)n2)ccc1O	1.56	83.2%
CC(C)N1CC=C2C(C#N)=C(N)C(C#N)(C#N)C(c3ccccc3)C2C1 (stereo unspecified)	1.41	
COC(=O)c1c(C)[nH]c(O)c1C=Nc1ccc(C(C)C)cc1	1.38	93.8%
Cc1cc(O)cc(O)c1C=NCc1ccco1	2.37	99.9%
CC1=C(C#N)c2nc(N)c(C#N)c(C)c2/C1=C\c1ccc(OCC(=O)O)c(Cl)c1	1.34	95.4%
COc1ccccc1N1C(=O)C2C(C(=O)c3ccccc3)=NN(c3ccc(C)cc3)C2C1=O (stereo unspecified)	1.93	103%
Cn1c(=O)c(C(=O)CN2CCc3ccccc32)c(N)n(Cc2ccccc2)c1=O	2.2	99.9%

SMILES	fold increase	viability
CCN(CC)C(=O)c1cc2c(=O)n3cccc(C)c3nc2n1C	1.35	92.6%
O=[N+]([O-])c1ccc(-c2c[nH]c(=S)[nH]2)cc1	1.4	92.2%
COc1ccc(Cl)cc1-c1nc(SCC(=O)N(C)C)n[nH]1	1.33	102%
Cc1ccc(-c2c(C(=O)Nc3ccccc3C)c(C)[nH]c(=S)c2C#N)o1	1.7	93%
C=CCN(C1CCCCC1)S(=O)(=O)c1ccc2c(c1)oc(=O)n2C	1.48	90.2%
Cc1ccccc1CN1CCN(CC(=O)NCc2ccccc2)C1=O	1.44	99.4%
COc1ccc2c(n1)Sc1nc3ccccc3nc1N2	3.62	95.9%
CC(=O)N/N=C/c1cc(C(C)(C)C)cc(/C=N/NC(C)=O)c1O	4.57	
Cc1cccc(OCc2nnc(SCC(=O)Nc3ccc(C)c(C)c3)o2)c1	1.38	97.8%
O=C(O)c1cccc(-c2ccc(/C=N/Nc3ccc([N+](=O)[O-])cc3)o2)c1	1.92	105%
O=C(C(=O)N1CC=C(c2ccccc2)CC1)c1c[nH]c2ccccc12	2.25	88.2%
CN1/C(=C\C(=S)NC(=O)c2ccc([N+](=O)[O-])cc2)C(C)(C)c2ccccc21	1.72	
COc1ccc(/C=N/NC(=O)C(=O)N2CCN(c3ccccc3OC)CC2)cc1	1.42	86.3%
CCN1C/C(=C/c2sccc2C)c2nc3ccccc3c(C(=O)O)c2C1	1.37	98.1%
CCOC(=O)CC1C(=O)NCCN1c1nc2ccc(C)cn2c(=O)c1/C=C1\SC(=S)N(C(C)CC)C1=O (stereo unspecified)	4.22	
CCOc1cccc(/C=C2/NC(=O)N(CC(=O)Nc3cccc(C)c3)C2=O)c1O	1.8	102%
CCN(CC)c1nc(C)c(C(=S)Nc2cc([N+](=O)[O-])ccc2Cl)s1	1.55	97.8%
CCOc1ccc(NC(=O)C(C)Sc2nnc(C)n2C)cc1 (stereo unspecified)	1.57	96%
O=C(c1ccccc1)c1c2c(cc3sc4ccccc4[n+]13)-c1cccc3cccc-2c13	1.52	35.5%
CCOC(=O)c1c(C)[nH]c(C(=O)/C(C#N)=C/c2ccc(OC(F)F)c(OC)c2)c1C	1.68	89.7%
Cc1ccccc1Nc1cccc2nonc12	1.49	
O=[n+]1c2c(n([O-])c3cc(F)c(N4CCCC4)cc31)CCCC2	2.06	104%
COc1cc(/C=C2\SC(=S)N(C(Cc3ccccc3)C(=O)O)C2=O)ccc1O (stereo unspecified)	4.27	92.7%
